The chains are these.
B1: PhoQ; a variant is named by its letters at X, in order, P23837 (parent)
chain: MKKLLRLFFPLSLRVRFLLATAAVVLVLSLAYGMVALIGYSVSFDKTTFRLLRGESNLFYTLAKWENNKLHVELPENIDKQSPTMTLIYDENGQLLWAQRDVPWLMKMIQPDWLKSNGFHEIEADVNDTSLLLSGDHSIQQQLQEVREDDDDAEMTHSVAVNVYPATSRMPKLTIVVVDTIPVELKSSYMVWSWFIYVLSANLLLVIPLLWVAAWWSLRPIEALAKEVRELEEHNRELLNPATTRELTSLVRNLNRLLKSERERYDKYRTTLTDLTHSLKTPLXXLQXXLRSLRSEKMSVSDAEPVMLEQISRISQQIGYYLHRASMRGGTLLSRELHPVAPLLDNLTSALNKVYQRKGVNISLDISPEISFVGEQNDFVEVMGNVLDNACKYCLEFVEISARQTDEHLYIVVEDDGPGIPLSKREVIFDRGQRVDTLRPGQGVGLAVAREITEQYEGKIVAGESMLGGARMEVIFGRQHSAPKDE

Some of the results follow.

In the test the parent is B1. The test is described as follows: enrichment ratio after two sorts for PhoP signalling (ratio (wild type AVST 3.29)); higher = more functional. Conditions: with PhoP (E. coli).
On to RKEH, for which the enrichment ratio was ≤ 0.25. As for SWRQ, the enrichment ratio was ≤ 0.25.

VFYG: the enrichment ratio was ≤ 0.25. On to MEWL, for which the enrichment ratio is ≤ 0.25.

Consider TMAK, for which the enrichment ratio was 16.1. With YVCS the figure was 0.325; with MYMF, ≤ 0.25. In the case of NWFQ, the enrichment ratio is ≤ 0.25. AEIA: the enrichment ratio was 15.4. Consider YWTI, for which the enrichment ratio was ≤ 0.25. As for THKW, the enrichment ratio was ≤ 0.25. With RASF the figure was ≤ 0.25; with DKRG, ≤ 0.25; with EAPV, ≤ 0.25. To NYEY belongs ≤ 0.25.

As to FWWL, the enrichment ratio is ≤ 0.25. Take QKPQ: the enrichment ratio was ≤ 0.25. Turning to PAWP, the enrichment ratio is ≤ 0.25. Regarding RVCD, the enrichment ratio is ≤ 0.25. On to TIDW, for which the enrichment ratio was ≤ 0.25. As for DEIF, the enrichment ratio was ≤ 0.25. For the variant HGWI, the enrichment ratio was ≤ 0.25.

Turning to CIAC, the enrichment ratio is ≤ 0.25. In the case of QTPT, the enrichment ratio was ≤ 0.25. Turning to RFQD, the enrichment ratio was ≤ 0.25. With LMMQ the figure was ≤ 0.25; with YCQG, ≤ 0.25; with VKWF, ≤ 0.25. Turning to NAFH, the enrichment ratio was ≤ 0.25.

Regarding SSPD, the enrichment ratio was ≤ 0.25. In the case of TAWN, the enrichment ratio is ≤ 0.25. Take VNKK: the enrichment ratio is ≤ 0.25. In the case of KGQF, the enrichment ratio was ≤ 0.25. WQFV: the enrichment ratio is ≤ 0.25. Turning to ALKI, the enrichment ratio is ≤ 0.25. QNLL: the enrichment ratio is ≤ 0.25.

IVAG: the enrichment ratio is ≤ 0.25. Turning to WDGA, the enrichment ratio was ≤ 0.25. To AWRI belongs ≤ 0.25. For the variant SHGR, the enrichment ratio is 0.478.

Turning to GTYW, the enrichment ratio was ≤ 0.25.

As for PSIM, the enrichment ratio was ≤ 0.25.

In the case of DRIR, the enrichment ratio was ≤ 0.25. Consider KCFR, for which the enrichment ratio is ≤ 0.25. Turning to WIVV, the enrichment ratio is ≤ 0.25.

FMAE: the enrichment ratio is ≤ 0.25. For the variant PQIQ, the enrichment ratio is ≤ 0.25. In the case of GKPH, the enrichment ratio was ≤ 0.25. For the variant GQYW, the enrichment ratio is ≤ 0.25. In the case of GWWA, the enrichment ratio was ≤ 0.25. For the variant WLEW, the enrichment ratio is ≤ 0.25. As to YPSC, the enrichment ratio is ≤ 0.25. As to GRKQ, the enrichment ratio is ≤ 0.25.

For RYLV, the enrichment ratio was ≤ 0.25.

Regarding DPRY, the enrichment ratio is ≤ 0.25.

For KHCR, the enrichment ratio was ≤ 0.25. QKKL: the enrichment ratio is ≤ 0.25.

WDVW: the enrichment ratio is ≤ 0.25. To FRYQ belongs ≤ 0.25; to PYDY, ≤ 0.25. Take INGD: the enrichment ratio is ≤ 0.25.

On to QTGW, for which the enrichment ratio is ≤ 0.25. Consider YARA, for which the enrichment ratio was ≤ 0.25. For FPYR, the enrichment ratio was ≤ 0.25. With IKGK the figure was ≤ 0.25. Turning to SAMN, the enrichment ratio came out at 9.23. Turning to PVPM, the enrichment ratio was ≤ 0.25. To LVVR belongs ≤ 0.25. On to GDII, for which the enrichment ratio was determined as 2.61. With FDWD the figure was ≤ 0.25; with RCAI, ≤ 0.25.

Consider IPFS, for which the enrichment ratio is ≤ 0.25.

Consider SIVL, for which the enrichment ratio was 0.788. On to DSLI, for which the enrichment ratio is ≤ 0.25.

In the case of IVPC, the enrichment ratio came out at 0.733. With NSWF the figure was ≤ 0.25.

QFNS: the enrichment ratio was ≤ 0.25. Consider LREG, for which the enrichment ratio was ≤ 0.25.

Consider SIRF, for which the enrichment ratio was ≤ 0.25. Turning to VYLI, the enrichment ratio is ≤ 0.25.

Take PVCM: the enrichment ratio is ≤ 0.25. As for LFNG, the enrichment ratio was ≤ 0.25. Regarding ACLV, the enrichment ratio stood at 16. With DVFI the figure was ≤ 0.25. For QMGH, the enrichment ratio came out at 7.54. With QYVS the figure was ≤ 0.25; with FQGQ, ≤ 0.25; with GALW, ≤ 0.25. For LPRF, the enrichment ratio was ≤ 0.25. Regarding IHMK, the enrichment ratio was ≤ 0.25. As for DVYR, the enrichment ratio is ≤ 0.25.

With RRQN, the enrichment ratio is ≤ 0.25. In the case of AIPP, the enrichment ratio is ≤ 0.25. Consider QDSI, for which the enrichment ratio was ≤ 0.25. To WPRM belongs ≤ 0.25; to NFFA, ≤ 0.25; to PHLN, ≤ 0.25.

For the variant IKVK, the enrichment ratio is ≤ 0.25.

As for TAHF, the enrichment ratio amounted to 10.3.

In the case of DYKQ, the enrichment ratio was ≤ 0.25. For MWKW, the enrichment ratio was ≤ 0.25.

For the variant DPNI, the enrichment ratio was ≤ 0.25. With HADV the figure was ≤ 0.25; with VHGH, ≤ 0.25; with IWII, ≤ 0.25. With NPRW, the enrichment ratio is ≤ 0.25. Regarding GWNI, the enrichment ratio was ≤ 0.25.

For ECDY, the enrichment ratio is ≤ 0.25. In the case of EDQY, the enrichment ratio is ≤ 0.25. Turning to GGVR, the enrichment ratio was ≤ 0.25. With FWKC the figure was ≤ 0.25; with HKQN, ≤ 0.25.

As to GLIY, the enrichment ratio is ≤ 0.25. For the variant NYYM, the enrichment ratio is ≤ 0.25. On to LFPD, for which the enrichment ratio is ≤ 0.25. With IWEL the figure was ≤ 0.25.

Take TQDK: the enrichment ratio is ≤ 0.25.

With HKYM, the enrichment ratio is ≤ 0.25. For the variant VCHH, the enrichment ratio is ≤ 0.25.

On to MRRD, for which the enrichment ratio is ≤ 0.25.

Consider TSNR, for which the enrichment ratio was ≤ 0.25. Consider MTQI, for which the enrichment ratio was ≤ 0.25. Regarding ALCP, the enrichment ratio was ≤ 0.25. To WICW belongs ≤ 0.25; to VYVP, ≤ 0.25; to RHFI, ≤ 0.25. Take YGFM: the enrichment ratio was ≤ 0.25. With PKPS the figure was ≤ 0.25; with EAYM, ≤ 0.25. With PNRA the figure was ≤ 0.25; with PLVE, ≤ 0.25; with HHNY, ≤ 0.25. As for DNDG, the enrichment ratio is ≤ 0.25. Take VDEI: the enrichment ratio was ≤ 0.25.

As for VGYF, the enrichment ratio was ≤ 0.25. For the variant SCKG, the enrichment ratio was ≤ 0.25. With MESC the figure was 10.2; with NLRM, ≤ 0.25; with MWTH, ≤ 0.25.

Take IKNL: the enrichment ratio is ≤ 0.25. Take IESK: the enrichment ratio was ≤ 0.25. With TQNW, the enrichment ratio is ≤ 0.25. As for MLFL, the enrichment ratio came to 0.265. In the case of EHLM, the enrichment ratio is ≤ 0.25. Take WFIS: the enrichment ratio is ≤ 0.25. Turning to FGCL, the enrichment ratio turned out to be 9.53. Regarding IVRL, the enrichment ratio is ≤ 0.25.

Regarding FSGK, the enrichment ratio is ≤ 0.25. Regarding SFMM, the enrichment ratio was 0.454. As to EAKK, the enrichment ratio is ≤ 0.25.

For the variant VNHM, the enrichment ratio was ≤ 0.25. With KSAH, the enrichment ratio was ≤ 0.25.

As to EIWM, the enrichment ratio was ≤ 0.25.
